# From the supplement of paper PMC8728848
# The other results are listed elsewhere or left out.
# Tests used:
# Assay in all cases: glycan array binding signal (z-score within array); higher = stronger binding
# Conditions in all cases: glycan notation: IUPAC condensed, linker removed
# [1] = molecular target: Gal(b1-3)GlcNAc(b1-6)GalNAc
# Method in brief: (§1)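 Glycan array data came from 3228 arrays in the Consortium for Functional Glycomics database, and only arrays with an available protein sequence were kept. Glycan names were put into IUPAC-condensed notation, and columns mapping to the same glycan were averaged. The binding signal is a within-array Z-score, averaged across arrays of one protein sequence run at different concentrations or buffers and across linkers. A negative Z-score can be read as non-binding.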
# [2] = molecular target: Gal(b1-3)GlcNAc(b1-6)[Gal(b1-3)]GalNAc
# Method in brief: as §1
# Gal(b1-3)GlcNAc6S = molecular target: Gal(b1-3)GlcNAc6S
# Method in brief: as §1
# [3] = molecular target: Gal(b1-3)[Fuc(a1-4)]GlcNAc
# Method in brief: as §1
# [4] = molecular target: Gal(b1-3)[Fuc(a1-4)]GlcNAc(b1-2)Man
# Method in brief: as §1
# [5] = molecular target: Gal(b1-3)[Fuc(a1-4)]GlcNAc(b1-2)Man(a1-3)[Gal(b1-3)[Fuc(a1-4)]GlcNAc(b1-2)Man(a1-6)]Man(b1-4)GlcNAc(b1-4)[Fuc(a1-6)]GlcNAc
# Method in brief: as §1
# [6] = molecular target: Gal(b1-3)[Fuc(a1-4)]GlcNAc(b1-3)Gal(b1-3)[Fuc(a1-4)]GlcNAc
# Method in brief: as §1
# [7] = molecular target: Gal(b1-3)[Fuc(a1-4)]GlcNAc(b1-3)Gal(b1-4)[Fuc(a1-3)]GlcNAc
# Method in brief: as §1
# [8] = molecular target: Gal(b1-3)[Fuc(a1-4)]GlcNAc(b1-6)GalNAc
# Method in brief: as §1
# [9] = molecular target: Gal(b1-3)[GlcNAc(b1-6)]GalNAc
# Method in brief: as §1
# [10] = molecular target: Gal(b1-3)[Neu5Ac(a2-6)]GalNAc
# Method in brief: as §1
# [11] = molecular target: Gal(b1-3)[Neu5Ac(a2-6)]GlcNAc(b1-4)Gal(b1-4)Glc
# Method in brief: as §1
# [12] = molecular target: Gal(b1-3)[Neu5Ac(b2-6)]GalNAc
# Method in brief: as §1
# Gal(b1-4)Gal = molecular target: Gal(b1-4)Gal
# Method in brief: as §1
# [13] = molecular target: Gal(b1-4)GalNAc(a1-3)[Fuc(a1-2)]Gal(b1-4)GlcNAc
# Method in brief: as §1
# [14] = molecular target: Gal(b1-4)GalNAc(b1-3)[Fuc(a1-2)]Gal(b1-4)GlcNAc
# Method in brief: as §1
# Gal(b1-4)Glc = molecular target: Gal(b1-4)Glc
# Method in brief: as §1
# Gal(b1-4)Glc6S = molecular target: Gal(b1-4)Glc6S
# Method in brief: as §1
# Gal(b1-4)GlcNAc = molecular target: Gal(b1-4)GlcNAc
# Method in brief: as §1
# [15] = molecular target: Gal(b1-4)GlcNAc(a1-6)Gal(b1-4)GlcNAc
# Method in brief: as §1
# Gal(b1-4)GlcNAc(b1-2)Man = molecular target: Gal(b1-4)GlcNAc(b1-2)Man
# Method in brief: as §1
# [16] = molecular target: Gal(b1-4)GlcNAc(b1-2)Man(a1-3)Man(b1-4)GlcNAc(b1-4)GlcNAc
# Method in brief: as §1
# [17] = molecular target: Gal(b1-4)GlcNAc(b1-2)Man(a1-3)[Gal(b1-4)GlcNAc(b1-2)Man(a1-6)]Man(b1-4)GlcNAc(b1-4)GlcNAc
# Method in brief: as §1
# [18] = molecular target: Gal(b1-4)GlcNAc(b1-2)Man(a1-3)[Gal(b1-4)GlcNAc(b1-2)Man(a1-6)]Man(b1-4)GlcNAc(b1-4)[Fuc(a1-6)]GlcNAc
# Method in brief: as §1
# [19] = molecular target: Gal(b1-4)GlcNAc(b1-2)Man(a1-3)[Gal(b1-4)GlcNAc(b1-2)Man(a1-6)][Gal(b1-4)GlcNAc(b1-4)]Man(b1-4)GlcNAc(b1-4)[Fuc(a1-6)]GlcNAc
# Method in brief: as §1
# [20] = molecular target: Gal(b1-4)GlcNAc(b1-2)Man(a1-3)[Gal(b1-4)GlcNAc(b1-2)Man(a1-6)][GlcNAc(b1-4)]Man(b1-4)GlcNAc(b1-4)[Fuc(a1-6)]GlcNAc
# Method in brief: as §1
# [21] = molecular target: Gal(b1-4)GlcNAc(b1-2)Man(a1-3)[GlcNAc(b1-2)Man(a1-6)]Man(b1-4)GlcNAc(b1-4)GlcNAc
# Method in brief: as §1
# [22] = molecular target: Gal(b1-4)GlcNAc(b1-2)Man(a1-3)[GlcNAc(b1-4)][Gal(b1-4)GlcNAc(b1-2)Man(a1-6)]Man(b1-4)GlcNAc(b1-4)GlcNAc
# Method in brief: as §1
# [23] = molecular target: Gal(b1-4)GlcNAc(b1-2)Man(a1-3)[Man(a1-6)]Man(b1-4)GlcNAc(b1-4)GlcNAc
# Method in brief: as §1
# [24] = molecular target: Gal(b1-4)GlcNAc(b1-2)Man(a1-6)Man(b1-4)GlcNAc(b1-4)GlcNAc
# Method in brief: as §1
# [25] = molecular target: Gal(b1-4)GlcNAc(b1-2)Man(a1-6)[GlcNAc(b1-2)Man(a1-3)]Man(b1-4)GlcNAc(b1-4)GlcNAc
# Method in brief: as §1
# [26] = molecular target: Gal(b1-4)GlcNAc(b1-2)Man(a1-6)[Man(a1-3)]Man(b1-4)GlcNAc(b1-4)GlcNAc
# Method in brief: as §1
# [27] = molecular target: Gal(b1-4)GlcNAc(b1-2)[Gal(b1-4)GlcNAc(b1-4)]Man(a1-3)[Gal(b1-4)GlcNAc(b1-2)Man(a1-6)]Man(b1-4)GlcNAc(b1-4)GlcNAc
# Method in brief: as §1
# [28] = molecular target: Gal(b1-4)GlcNAc(b1-2)[Gal(b1-4)GlcNAc(b1-4)]Man(a1-3)[Gal(b1-4)GlcNAc(b1-2)[Gal(b1-4)GlcNAc(b1-6)]Man(a1-6)]Man(b1-4)GlcNAc(b1-4)GlcNAc
# Method in brief: as §1
# [29] = molecular target: Gal(b1-4)GlcNAc(b1-2)[Gal(b1-4)GlcNAc(b1-4)]Man(a1-3)[GlcNAc(b1-4)][Gal(b1-4)GlcNAc(b1-2)Man(a1-6)]Man(b1-4)GlcNAc(b1-4)GlcNAc
# Method in brief: as §1
# [30] = molecular target: Gal(b1-4)GlcNAc(b1-2)[Gal(b1-4)GlcNAc(b1-4)]Man(a1-3)[GlcNAc(b1-4)][Gal(b1-4)GlcNAc(b1-2)[Gal(b1-4)GlcNAc(b1-6)]Man(a1-6)]Man(b1-4)GlcNAc(b1-4)GlcNAc
# Method in brief: as §1
# [31] = molecular target: Gal(b1-4)GlcNAc(b1-2)[Gal(b1-4)GlcNAc(b1-6)]Man(a1-6)[Gal(b1-4)GlcNAc(b1-2)Man(a1-3)]Man(b1-4)GlcNAc(b1-4)GlcNAc
# Method in brief: as §1
# [32] = molecular target: Gal(b1-4)GlcNAc(b1-2)[Gal(b1-4)GlcNAc(b1-6)]Man(a1-6)[Gal(b1-4)GlcNAc(b1-2)Man(a1-3)]Man(b1-4)GlcNAc(b1-4)[Fuc(a1-6)]GlcNAc
# Method in brief: as §1
# [33] = molecular target: Gal(b1-4)GlcNAc(b1-2)[Gal(b1-4)GlcNAc(b1-6)]Man(a1-6)[GlcNAc(b1-4)][Gal(b1-4)GlcNAc(b1-2)Man(a1-3)]Man(b1-4)GlcNAc(b1-4)GlcNAc
# Method in brief: as §1
# [34] = molecular target: Gal(b1-4)GlcNAc(b1-2)[Gal(b1-4)GlcNAc(b1-6)]Man(a1-6)[GlcNAc(b1-4)][Gal(b1-4)GlcNAc(b1-2)[Gal(b1-4)GlcNAc(b1-4)]Man(a1-3)]Man(b1-4)GlcNAc(b1-4)[Fuc(a1-6)]GlcNAc
# Method in brief: as §1
# [35] = molecular target: Gal(b1-4)GlcNAc(b1-3)Gal(b1-3)GalNAc
# Method in brief: as §1
# [36] = molecular target: Gal(b1-4)GlcNAc(b1-3)Gal(b1-3)GlcNAc
# Method in brief: as §1
# [37] = molecular target: Gal(b1-4)GlcNAc(b1-3)Gal(b1-4)Glc
# Method in brief: as §1
# [38] = molecular target: Gal(b1-4)GlcNAc(b1-3)Gal(b1-4)GlcNAc
# Method in brief: as §1
# [39] = molecular target: Gal(b1-4)GlcNAc(b1-3)Gal(b1-4)GlcNAc(b1-2)Man(a1-3)[Gal(b1-4)GlcNAc(b1-3)Gal(b1-4)GlcNAc(b1-2)Man(a1-6)]Man(b1-4)GlcNAc(b1-4)GlcNAc
# Method in brief: as §1
binder,measurement,setting,value
CTAEGIKKFEGDGYELFKDNFPAGEKFDNDDTNDQFYTVIF [MUB40 (Lactobacillus reuteri)],glycan array binding signal (z-score),[1],-0.239
same,glycan array binding signal (z-score),[2],0.634
same,glycan array binding signal (z-score),Gal(b1-3)GlcNAc6S,0.047
same,glycan array binding signal (z-score),[3],-0.13
same,glycan array binding signal (z-score),[4],-0.308
same,glycan array binding signal (z-score),[5],-0.297
same,glycan array binding signal (z-score),[6],-0.394
same,glycan array binding signal (z-score),[7],-0.101
same,glycan array binding signal (z-score),[8],-0.329
same,glycan array binding signal (z-score),[9],-0.493
same,glycan array binding signal (z-score),[10],0.004
same,glycan array binding signal (z-score),[11],-0.18
same,glycan array binding signal (z-score),[12],-0.4
same,glycan array binding signal (z-score),Gal(b1-4)Gal,-0.36
same,glycan array binding signal (z-score),[13],-0.324
same,glycan array binding signal (z-score),[14],-0.408
same,glycan array binding signal (z-score),Gal(b1-4)Glc,-0.052
same,glycan array binding signal (z-score),Gal(b1-4)Glc6S,0.18
same,glycan array binding signal (z-score),Gal(b1-4)GlcNAc,-0.134
same,glycan array binding signal (z-score),[15],-0.17
same,glycan array binding signal (z-score),Gal(b1-4)GlcNAc(b1-2)Man,-0.368
same,glycan array binding signal (z-score),[16],0.279
same,glycan array binding signal (z-score),[17],-0.183
same,glycan array binding signal (z-score),[18],-0.425
same,glycan array binding signal (z-score),[19],0.207
same,glycan array binding signal (z-score),[20],0.74
same,glycan array binding signal (z-score),[21],-0.422
same,glycan array binding signal (z-score),[22],-0.422
same,glycan array binding signal (z-score),[23],-0.331
same,glycan array binding signal (z-score),[24],-0.193
same,glycan array binding signal (z-score),[25],-0.102
same,glycan array binding signal (z-score),[26],-0.441
same,glycan array binding signal (z-score),[27],-0.293
same,glycan array binding signal (z-score),[28],-0.137
same,glycan array binding signal (z-score),[29],-0.358
same,glycan array binding signal (z-score),[30],-0.656
same,glycan array binding signal (z-score),[31],0.618
same,glycan array binding signal (z-score),[32],0.328
same,glycan array binding signal (z-score),[33],-0.272
same,glycan array binding signal (z-score),[34],-0.782
same,glycan array binding signal (z-score),[35],1.59
same,glycan array binding signal (z-score),[36],0.806
same,glycan array binding signal (z-score),[37],-0.492
same,glycan array binding signal (z-score),[38],0.002
same,glycan array binding signal (z-score),[39],0.708
